Experimental findings from PMC7604603 are described below.

Sequences of proteins named here, by UniProt entry; tags and fusion partners are left off.
UniProt Q12824: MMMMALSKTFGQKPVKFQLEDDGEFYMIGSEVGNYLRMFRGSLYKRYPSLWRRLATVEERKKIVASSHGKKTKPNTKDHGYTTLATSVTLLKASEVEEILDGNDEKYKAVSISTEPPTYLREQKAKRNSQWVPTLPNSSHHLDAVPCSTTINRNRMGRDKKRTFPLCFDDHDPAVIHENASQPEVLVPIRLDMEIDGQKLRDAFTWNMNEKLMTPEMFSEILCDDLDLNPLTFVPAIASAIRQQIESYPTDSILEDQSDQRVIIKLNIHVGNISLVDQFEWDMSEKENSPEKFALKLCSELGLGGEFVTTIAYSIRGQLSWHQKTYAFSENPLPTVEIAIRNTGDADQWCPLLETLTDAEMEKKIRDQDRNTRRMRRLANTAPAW

Results are given in words; binding and its absence hold for the method and conditions named. In cells and extracts the contact can be indirect. Some entries that bind do so weakly or less than the wild type. For some of these results: Tags and fused reporters may be left off the sequences shown.

Assay [1] deals with SMARCB1, endogenous in HUVEC (human (endogenous in HUVEC)) (UniProt Q12824). Put plainly: co-IP; endogenous proteins; anti-SMARCB1 IP, western blot; HUVEC or RAOEC after 4-hour OGD and 1-hour reoxygenation, with or without 500 μM H2O2; isotype IgG as negative control. On the technique in general: A western blot detects proteins with antibodies after separation by electrophoresis.

For assay [2], the target named is NR4A3-C (C-terminal 308 amino acids of NR4A3) fused with a flag tag in the N-terminal (UniProt Q92570). In words: co-IP; flag-tagged NR4A3-C, full-length or truncated NR4A3 coexpressed with HA-SMARCB1 in HEK-293T cells; antiflag IP, western blot; beads washed 5 times with IP lysis buffer containing 300 mM NaCl.
The target of assay [3] is T1, NR4A3-AF1 (1-124 amino acids) fused with a flag tag in the N-terminal (UniProt Q92570).
T1 sequence: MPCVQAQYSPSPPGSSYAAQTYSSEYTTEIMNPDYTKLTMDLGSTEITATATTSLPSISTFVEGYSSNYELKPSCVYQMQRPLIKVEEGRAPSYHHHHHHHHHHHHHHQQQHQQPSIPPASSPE
Described as above.

Assay [4] deals with T2, NR4A3-ΔDBD (1-292 amino acids) fused with a flag tag in the N-terminal (UniProt Q92570).
T2 sequence: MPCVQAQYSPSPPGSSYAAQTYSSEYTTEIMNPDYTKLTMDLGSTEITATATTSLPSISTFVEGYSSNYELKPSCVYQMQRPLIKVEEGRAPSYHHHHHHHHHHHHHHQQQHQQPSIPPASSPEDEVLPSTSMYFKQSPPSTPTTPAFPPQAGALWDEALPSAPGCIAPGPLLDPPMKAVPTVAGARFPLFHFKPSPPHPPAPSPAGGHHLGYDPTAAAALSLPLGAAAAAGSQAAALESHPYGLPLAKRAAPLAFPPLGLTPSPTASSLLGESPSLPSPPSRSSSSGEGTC
Described as above.

The target of assay [5] is NR4A3-ΔAF2 (1-610 amino acids) fused with a flag tag in the N-terminal (UniProt Q92570). The description is as above.
The target in assay [6] is NR4A3-FL (1-627 amino acids) fused with a flag tag in the N-terminal (UniProt Q92570). The description is as above.
Assay [7] deals with NR4A3-ΔLBD (1-379 amino acids) fused with a flag tag in the N-terminal (UniProt Q92570). The description is as above.

“NR4A3, endogenous in HUVEC (from UniProt Q92570 1-626)”: the binding result in assay [1] was “binds”.

With “SMARCB1 fused with an HA tag in the N-terminal (full-length cDNA) (from UniProt Q12824 1-385)”, the binding entry is “binds” in assay [2]; “no binding” in assay [3]; “no binding” in assay [4]; “binds” in assay [5]; “binds” in assay [6]; “binds” in assay [7].
